Laboratory results from PubChem BioAssay AID588453 (National Center for Advancing Translational Sciences (NCATS), 2011).
The whole screen tested about 390,000 compounds, of which about 4,000 (1%) were called active. This list was built around the results that the source calls inconclusive (neither active nor inactive); the mix of calls is not that of the screen. Calls come from the whole dose curve; as a rule, active = well fitted inhibition curve with a large enough effect; inconclusive = small, poorly fitted or top-dose-only effect; inactive = no such curve, though single readings can be large or run the other way. Potencies of inconclusive entries are doubtful fits and often do not repeat.

Target: Thioredoxin reductase 1, cytoplasmic (Rattus norvegicus) (UniProt O89049)
Chain of UniProt O89049 (O89049 whole entry, looked up): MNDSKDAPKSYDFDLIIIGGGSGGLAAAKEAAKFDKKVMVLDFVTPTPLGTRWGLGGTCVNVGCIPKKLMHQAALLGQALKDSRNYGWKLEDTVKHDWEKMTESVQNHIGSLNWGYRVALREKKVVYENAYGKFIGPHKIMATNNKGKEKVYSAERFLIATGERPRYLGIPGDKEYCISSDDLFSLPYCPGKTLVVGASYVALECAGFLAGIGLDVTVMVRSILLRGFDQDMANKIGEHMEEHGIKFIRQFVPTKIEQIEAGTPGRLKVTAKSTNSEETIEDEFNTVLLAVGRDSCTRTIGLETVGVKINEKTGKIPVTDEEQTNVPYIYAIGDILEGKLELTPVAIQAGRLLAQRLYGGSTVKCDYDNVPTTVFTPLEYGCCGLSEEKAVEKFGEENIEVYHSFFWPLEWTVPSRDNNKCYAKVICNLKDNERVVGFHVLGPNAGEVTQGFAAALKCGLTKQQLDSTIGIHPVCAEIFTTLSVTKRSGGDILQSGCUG
Assay: qHTS Assay for Inhibitors of Mammalian Selenoprotein Thioredoxin Reductase 1 (TrxR1): qHTS; note: nearly all actives have a fitted effect of over 65% in size
Details: recombinant rTrxR1, NADPH fluorescence consumption, selenite substrate; series mostly up to 114 µM; activity change, negative = inhibition: at the top concentration
Procedure, shortened: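 Rat TrxR1 (90 nM in the dispensed reagent) was pre-reduced with 400 uM NADPH for 5 min at room temperature, then incubated with compound for 15 min. After 400 uM selenite was added, NADPH fluorescence (Ex 340/Em 450 nm) was followed for 8 min.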
% is set by controls: 0 for no effect and ±100 for the full control effect; potency is the fitted concentration of half-maximal effect; tags give direction and shape of the fitted curve.

Structure (SMILES)	Potency	activity change, negative = inhibition
O=C(N/N=C/c1ccc(N2CCOCC2)o1)c1cccc([N+](=O)[O-])c1	active: 3.16 µM	–
C=CCOc1c(Cl)cc(CNCCCN2CCOCC2)cc1OC	inconclusive: 89.1 µM [inhibitor, partial curve, poor fit]	–
Cc1ccc(OCC(=O)NNc2c3ccccc3nc3ccccc23)cc1	–	inactive: 2.33%
CCOC(=O)/C=C/C(=O)Nc1nccs1	active: 50.1 µM	–
CNC(=S)Nc1ccc2nc(C)c(C)nc2c1	inconclusive: 39.8 µM [inhibitor, partial curve, poor fit]	–
O=C(Nc1ccccc1)NN(C(=O)CCl)c1ccccc1	active: 7.94 µM	–
O=C(NCc1ccco1)c1cc2ccc(O)cc2oc1=O	inconclusive: 70.8 µM [inhibitor, single point]	–
CCCCC(=O)Nc1cccc(NC(=S)NC(=O)C(C)C)c1	inconclusive: 20 µM [inhibitor, full curve]	–
Cc1nn(CC(=O)Nc2ccc(C(C)C)cc2)c(=O)c2c(C)n(-c3ccc(Cl)cc3)nc12	–	inactive: 23.7% [at 57.1 µM]
COc1ccc(C(=O)c2ccsc2N)cc1	inconclusive: 56.2 µM [inhibitor, partial curve]	–
O=C(O)CC(NS(=O)(=O)c1ccc(Br)cc1)c1ccco1 (configuration not stated)	inconclusive: 39.8 µM [inhibitor, single point]	–
Cc1cccc(NC(c2cccc(Cl)c2)c2ccc3cccnc3c2O)n1 (configuration not stated)	inconclusive: 17.8 µM [inhibitor, partial curve, poor fit]	–
CCC(=O)Nc1c2c(nn1-c1ccc(F)cc1)CS(=O)C2 (configuration not stated)	inconclusive: 0.708 µM [inhibitor, full curve, poor fit]	–
COc1cccc(C(=O)CSc2nnc(CNS(C)(=O)=O)n2-c2ccc(C)cc2)c1	inconclusive: 50.1 µM [inhibitor, single point]	–
CC(=O)Nc1ccc(NC(=O)Nc2cccc(Cl)c2)cc1	–	inactive: 29.1%
Cc1cc(C)cc(NC(=O)Cn2c(-c3ccccc3Cl)nc3ccccc32)c1	–	inactive: -9.86%
O=C1CCc2cc(S(=O)(=O)N3CCC(C(=O)NC4CCCc5ccccc54)CC3)ccc2N1 (configuration not stated)	inconclusive: 7.08 µM [inhibitor, full curve]	–
CC1=CC(c2ccccc2)NC(=S)N1 (configuration not stated)	–	inactive: -18.1%
O=C(N/N=C/c1cccc([N+](=O)[O-])c1O)C(O)(c1ccccc1)c1ccccc1	–	inactive: 2.76%
N#C/C(=C\c1ccccc1)C(=O)N(c1ccccn1)C1CCCCC1	inconclusive: 79.4 µM [inhibitor, single point]	–
CCOC(=O)CCc1c(C)nc(SCC(=O)O)c(C#N)c1C	inconclusive: 4.47 µM [inhibitor, partial curve]	–
CS(=O)(=O)Nc1ccccc1Oc1ccccc1	–	inactive: -8.77%
CCOc1ccc(C2c3c(oc4ccccc4c3=O)C(=O)N2CCCN2CCOCC2)cc1OCC (configuration not stated)	inconclusive: 50.1 µM [inhibitor, partial curve]	–
Cc1ccc(NC(=S)NC(C)(C)C)c([N+](=O)[O-])c1	–	inactive: 3.4% [at 57.1 µM]

Structure (SMILES)	Potency	activity change, negative = inhibition
N#Cc1c(N)oc(-c2ccco2)c1-c1ccco1	inconclusive: 50.1 µM [inhibitor, partial curve, poor fit]	–
Cc1ccc(S(=O)(=O)N2CCN(C(=O)CNC(=O)c3ccc(Cl)cc3)CC2)cc1	–	inactive: -18.6%
N#CC1=C(SCC(N)=O)NC2=C(C(=O)c3ccccc32)C1c1ccc(Cl)cc1 (configuration not stated)	inconclusive: 89.1 µM [inhibitor, single point]	–
CCOC(=O)c1c(NC(C)=O)sc2c1CCC(C=O)=C2Sc1ccccc1	active: 1.26 µM	–
Cc1ccc(-c2nnc(-c3cccc4ccccc34)o2)cc1	–	inactive: 50.5% [at 57.1 µM]
Clc1cccc(-c2ccc(CNCc3ccccn3)o2)c1	inconclusive: 39.8 µM [inhibitor, partial curve]	–
Cc1ccc(C(=O)NCc2ccco2)cc1S(=O)(=O)N1CCCC1	inconclusive: 50.1 µM [inhibitor, single point]	–
S=c1[nH]nc(COc2ccccc2)n1/N=C/c1ccc(Br)s1	inconclusive: 3.55 µM [inhibitor, full curve, poor fit]	–
CCOc1cc(CNc2ccc(O)cc2)ccc1OCc1ccc(Cl)cc1	active: 50.1 µM	–
COc1ccc(S(=O)(=O)NCC(c2ccco2)N2CCc3ccccc3C2)cc1 (configuration not stated)	–	inactive: 3.58%
O=C(CSc1ncc(-c2ccc(F)cc2)n1Cc1ccco1)Nc1ccc2c(c1)OCO2	inconclusive: 12.6 µM [inhibitor, single point]	–
Cc1ccc(-c2cc(-c3ccccc3)[nH]c(=S)c2C#N)cc1	–	inactive: -8.15% [at 57.1 µM]
CCOC(=O)c1cc2c(=O)n3ccccc3nc2n(CCCOC)c1=NC(=O)C(C)Oc1ccccc1 (configuration not stated)	inconclusive: 39.8 µM [inhibitor, partial curve, poor fit]	–
O=C1OC(Nc2nc3ccccc3s2)c2ccccc21 (configuration not stated)	–	inactive: -23.8%
CCN(CC)C(=O)c1sc2c(c1C)c(=O)n(-c1ccccc1)c(=O)n2CC(=O)Nc1ccc(C)cc1C	–	inactive: 11.8% [at 57.1 µM]
O=c1cc(N2CCc3ccccc3C2)[nH]c(=O)n1-c1ccccc1Cl	inconclusive: 28.2 µM [inhibitor, partial curve, poor fit]	–
Cc1ccc(S(=O)(=O)Nc2nc3c(s2)C(=O)CC(C)(C)C3)cc1	inconclusive: 17.8 µM [inhibitor, partial curve]	–
CCCCCCCCCCOC(=O)Cn1c(COc2ccccc2OC)[n+](C)c2ccccc21	inconclusive: 89.1 µM [inhibitor, single point]	–
Cc1cc(Cl)ccc1NC(=S)Nc1cccnc1	active: 28.2 µM	–
O=C(COC(=O)c1nc(Cl)c(Cl)c(Cl)c1Cl)c1ccc[nH]1	inconclusive: 25.1 µM [inhibitor, single point]	–
CCCn1nc([N+](=O)[O-])c(C(C#N)c2nc3ccccc3o2)c(Cl)c1=O (configuration not stated)	active: 11.2 µM	–
CSc1nc(SCC(=O)NCc2ccco2)c2c3c(sc2n1)COC(C)(C)C3	inconclusive: 39.8 µM [inhibitor, single point]	–
CCCCN(CCCC)CC(O)Cn1cc(/C=C/C(=O)c2ccccc2)c2ccccc21 (configuration not stated)	–	inactive: -9.45%
